These results are taken from the supplement of paper PMC7826260.

Common to all, as to assay: uncleaved DNA left, log2 of reads against the no-enzyme library (log2 ratio); higher = less cleavage (more negative = more Rep cleavage of the k-mer); sequences stand for … in CTCGTCCG…ACCGGAGA
Assay [1] deals with T1, Rep nickase domain of Muscovy duck circovirus.
T1 sequence (Rep 1-111, printed without the tag): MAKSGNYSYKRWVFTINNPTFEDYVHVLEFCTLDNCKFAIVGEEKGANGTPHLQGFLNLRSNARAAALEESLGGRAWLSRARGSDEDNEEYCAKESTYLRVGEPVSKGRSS
How it is done: (§1)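 A pool of 90-nt single-stranded DNAs with seven random bases just before the constant AC of the nick site (name = the seven bases) was cut by 3 µM recombinant His6-SUMO-tagged Rep nickase domain (300 nM DNA, 50 mM HEPES pH 8.0, 50 mM NaCl, 1 mM MnCl2, 1 h, 37 °C, three replicates). Uncut DNA was amplified and sequenced.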

For assay [2], the system named is T2, Rep nickase domain of banana bunchy top virus.
T2 sequence (Rep 1-94, printed without the tag): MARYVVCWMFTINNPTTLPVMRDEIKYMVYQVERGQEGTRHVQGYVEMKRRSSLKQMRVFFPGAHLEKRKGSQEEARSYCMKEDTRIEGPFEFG
How it is done:
as §1

Assay [3] has as its system T3, Rep nickase domain of cabbage leaf curl virus.
T3 sequence (Rep 1-116, printed without the tag): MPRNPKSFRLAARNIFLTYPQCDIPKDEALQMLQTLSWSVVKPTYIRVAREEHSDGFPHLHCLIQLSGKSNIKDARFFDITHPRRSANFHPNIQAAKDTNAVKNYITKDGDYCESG
The protocol:
as §1

The subject of assay [4] is T4, Rep nickase domain of chickpea chlorotic dwarf virus.
T4 sequence (Rep 1-124, printed without the tag): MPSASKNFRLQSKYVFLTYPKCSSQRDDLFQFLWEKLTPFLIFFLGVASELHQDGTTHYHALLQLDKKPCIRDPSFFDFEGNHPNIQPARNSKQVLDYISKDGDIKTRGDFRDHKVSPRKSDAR
The protocol: as §1
Assay [5] has as its system T5, Rep nickase domain of faba bean necrotic yellows virus.
T5 sequence (Rep 1-98, printed without the tag): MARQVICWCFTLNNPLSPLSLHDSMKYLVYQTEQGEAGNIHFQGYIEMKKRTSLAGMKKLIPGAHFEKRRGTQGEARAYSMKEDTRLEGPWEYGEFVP
How it is done:
as §1

Assay [6] concerns T6, Rep nickase domain of maize striate mosaic virus.
T6 sequence (Rep 1-117, printed without the tag): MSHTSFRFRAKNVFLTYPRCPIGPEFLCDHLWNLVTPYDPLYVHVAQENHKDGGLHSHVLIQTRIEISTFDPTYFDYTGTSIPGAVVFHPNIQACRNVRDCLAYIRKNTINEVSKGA
The protocol: as §1
In assay [7] the test system is T7, Rep nickase domain of porcine circovirus 2.
T7 sequence (Rep 2-116, printed without the tag): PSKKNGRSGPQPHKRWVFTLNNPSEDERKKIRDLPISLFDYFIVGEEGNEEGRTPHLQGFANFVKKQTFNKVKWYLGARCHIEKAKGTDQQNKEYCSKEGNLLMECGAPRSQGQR
The protocol:
as §1

The test system of assay [8] is T8, Rep nickase domain of tomato yellow leaf curl virus.
T8 sequence (Rep 1-136, printed without the tag): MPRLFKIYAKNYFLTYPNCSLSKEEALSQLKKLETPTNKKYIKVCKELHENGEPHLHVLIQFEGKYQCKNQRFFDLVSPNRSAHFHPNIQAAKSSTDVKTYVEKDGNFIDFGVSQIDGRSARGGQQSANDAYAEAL
How it is done:
as §1

Assay [9] has as its system T9, Rep nickase domain of wheat dwarf virus.
T9 sequence (Rep 1-137, printed without the tag): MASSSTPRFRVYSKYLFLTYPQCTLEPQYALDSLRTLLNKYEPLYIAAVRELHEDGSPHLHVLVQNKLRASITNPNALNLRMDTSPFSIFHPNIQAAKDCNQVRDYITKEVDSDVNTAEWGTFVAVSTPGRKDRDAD
How it is done:
as §1

This is one part of the list. Cleavage of a single-stranded DNA pool by Rep nickase domains was read by sequencing (3 µM enzyme, 1 h, 37 °C); shown is the middle of each 90-letter strand. The score is log2 (uncut reads / reads without enzyme); strong cutting gives strongly negative numbers. There is no active / inactive call. Reads are scaled to the total, so uncut sequences can rise above 0 when many others are cut.

For the sequence GGACAGC, the “uncleaved DNA left (log2)” value is 0.00899 in assay [1]; 0.0872 in assay [2]; 0.813 in assay [3]; 1.92 in assay [4]; 0.0081 in assay [5]; 2.17 in assay [6]. In addition, the entries for the “uncleaved DNA left (log2)” value in assay [7], in [8] and in [9] were 0.21, -0.0456 and 0.11, respectively.

Turning to TTGTGAT, the “uncleaved DNA left (log2)” value in [1] is 0.0422; in assay [2], -0.0301; in assay [3] it was 0.147; in assay [4], 0.73; in assay [5] it was 0.0818; in [6], 0.867. The results for the “uncleaved DNA left (log2)” value in assay [7], in assay [8] and in assay [9] were -2.08, 0.0465 and 0.00303, respectively.

With GCCGACC, the “uncleaved DNA left (log2)” value is -0.154 in assay [1]; 0.00639 in assay [2]; -0.035 in assay [3]; 0.301 in assay [4]; -0.0271 in assay [5]; -0.206 in assay [6]. Moreover, the entries for the “uncleaved DNA left (log2)” value in assay [7], in assay [8] and in assay [9] were -0.00871, -0.0693 and -0.131, respectively.

For the sequence CTATACG, the “uncleaved DNA left (log2)” value was -0.0395 in assay [1]; -0.0747 in assay [2]; -0.799 in assay [3]; -0.219 in assay [4]; 0.121 in assay [5]; -1.05 in [6]. Further, the “uncleaved DNA left (log2)” value in assay [7] is 0.221; in assay [8], 0.0976; in assay [9], -0.156.

Turning to GGTCATT, the “uncleaved DNA left (log2)” value in [1] is 0.0189; in assay [2] it was 0.0917; in [3] it was 0.709; in [4], 1.83; in assay [5], -0.0305; in assay [6] it was 2.15. Moreover, the “uncleaved DNA left (log2)” value is -0.013 in assay [7], -0.0524 in assay [8] and 0.147 in assay [9].

As for CATGTGA, the “uncleaved DNA left (log2)” value in [1] is -0.0781; in [2] it was -0.206; in assay [3] it was -0.777; in assay [4] it was -0.737; in [5] it was 0.0303; in assay [6], -1.15. Besides, the “uncleaved DNA left (log2)” value is 0.0839 in assay [7], -0.0157 in assay [8] and -0.245 in [9].

Consider ATTAGGC, for which the “uncleaved DNA left (log2)” value in assay [1] is 0.121; in assay [2], 0.116; in assay [3], 0.197; in assay [4], 0.512; in assay [5] it was -0.0582; in assay [6] it was -0.489. In addition, the “uncleaved DNA left (log2)” value in assay [7] came out at 0.201; in [8], 0.122; in assay [9] it was 0.121.

For AAACTCT, the “uncleaved DNA left (log2)” value was 0.0142 in assay [1]; -0.0989 in [2]; -1.58 in assay [3]; -2.95 in assay [4]; 0.0693 in assay [5]; -0.882 in assay [6]. For the same sequence, the “uncleaved DNA left (log2)” value is -0.588 in assay [7], -0.104 in assay [8] and -0.707 in [9].

Regarding GGAATTA, the “uncleaved DNA left (log2)” value is 0.109 in [1]; 0.211 in assay [2]; 0.648 in [3]; 1.42 in [4]; 0.114 in assay [5]; 2.02 in assay [6]. Besides, the “uncleaved DNA left (log2)” value in assay [7] came out at 0.184; in assay [8], 0.142; in assay [9], 0.209.

As for AACAGGC, the “uncleaved DNA left (log2)” value is -0.0473 in [1]; -0.0149 in [2]; -0.121 in [3]; -0.239 in [4]; -0.0102 in assay [5]; -0.921 in assay [6]. The “uncleaved DNA left (log2)” value was 0.188 in assay [7], -0.0308 in assay [8] and -0.017 in [9].

As to TAGTCCG, the “uncleaved DNA left (log2)” value was 0.185 in assay [1]; 0.00516 in assay [2]; -0.756 in assay [3]; -0.285 in assay [4]; 0.0556 in [5]; -1.05 in assay [6]. Moreover, the results for the “uncleaved DNA left (log2)” value in assay [7], in assay [8] and in assay [9] were -0.872, -0.0217 and -0.0545, respectively.

On to TCTTACG, for which the “uncleaved DNA left (log2)” value in assay [1] was 0.0968; in [2], 0.0332; in assay [3], -0.861; in assay [4] it was -1.15; in [5] it was 0.0396; in [6], -1.2. Also, the entries for the “uncleaved DNA left (log2)” value in [7], in [8] and in [9] were -0.0793, 0.0703 and -0.0311, respectively.

In the case of CAGAAAT, the “uncleaved DNA left (log2)” value is -0.00643 in [1]; -0.183 in assay [2]; 0.177 in [3]; -0.0356 in [4]; -0.117 in [5]; 0.35 in assay [6]. In addition, the “uncleaved DNA left (log2)” value in assay [7] was -2.77; in assay [8], -0.0222; in [9] it was 0.222.

Take TGATCGG: the “uncleaved DNA left (log2)” value in assay [1] came to 0.0297; in [2], 0.0585; in assay [3], 0.501; in [4] it was 1.44; in assay [5], 0.00135; in assay [6], 1.89. In addition, the “uncleaved DNA left (log2)” value in [7] was 0.145; in assay [8], -0.0665; in assay [9], 0.0597.

With CCCTGAA, the “uncleaved DNA left (log2)” value in [1] is -0.127; in assay [2], 0.0513; in assay [3], 0.089; in assay [4], -0.153; in assay [5], 0.00392; in assay [6], -0.522. Besides, the results for the “uncleaved DNA left (log2)” value in assay [7], in [8] and in [9] were -0.023, 0.0158 and 0.0722, respectively.
